# The full ranking holds about 110,000 compounds; the median of “z-score” is about -0.1, and the highest 2% start at about 2. The list shows a part of the results. Active and inactive are the calls of the source.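 How the source made its calls: active means z-score in the third read window above 3 or below -3; inactive means the rest.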
# Target: Metabotropic glutamate receptor 8 (Rattus norvegicus) (UniProt P70579)
# Experiment: mGluR8 Gi/Go-coupled signaling modulation – cell-based, rat, thallium flux, HTS, primary screen (AID 488969)
# Conditions: HEK293 rat mGluR8, GIRK (G protein-gated inwardly rectifying potassium channel) thallium flux, FluoZin2; at 10 µM; stronger effect = higher value; submaximal glutamate (EC20) added with thallium
# Sequence of UniProt P70579 (P70579 whole entry, looked up): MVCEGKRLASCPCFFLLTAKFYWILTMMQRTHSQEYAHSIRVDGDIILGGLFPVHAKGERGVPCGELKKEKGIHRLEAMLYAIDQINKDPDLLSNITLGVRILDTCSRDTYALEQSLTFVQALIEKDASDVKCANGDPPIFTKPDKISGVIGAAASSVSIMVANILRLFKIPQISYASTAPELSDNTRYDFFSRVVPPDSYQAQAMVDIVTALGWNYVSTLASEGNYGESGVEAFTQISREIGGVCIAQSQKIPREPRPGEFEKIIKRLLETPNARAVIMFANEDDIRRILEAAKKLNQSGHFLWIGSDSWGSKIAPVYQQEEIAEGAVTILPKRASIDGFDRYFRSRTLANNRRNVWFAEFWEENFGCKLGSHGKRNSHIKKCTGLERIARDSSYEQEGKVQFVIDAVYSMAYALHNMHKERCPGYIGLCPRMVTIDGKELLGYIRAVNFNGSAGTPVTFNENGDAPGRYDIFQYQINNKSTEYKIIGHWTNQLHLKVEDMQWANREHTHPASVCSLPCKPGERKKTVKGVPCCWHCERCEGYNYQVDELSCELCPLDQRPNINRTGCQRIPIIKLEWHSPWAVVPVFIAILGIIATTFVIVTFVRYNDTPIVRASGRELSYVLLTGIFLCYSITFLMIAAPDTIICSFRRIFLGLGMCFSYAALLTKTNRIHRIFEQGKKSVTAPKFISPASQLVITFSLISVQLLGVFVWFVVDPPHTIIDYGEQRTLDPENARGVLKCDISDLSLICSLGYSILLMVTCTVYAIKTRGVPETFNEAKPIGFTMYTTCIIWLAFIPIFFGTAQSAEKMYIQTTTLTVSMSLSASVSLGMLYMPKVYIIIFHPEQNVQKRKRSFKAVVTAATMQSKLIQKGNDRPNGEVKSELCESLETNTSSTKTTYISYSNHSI
row,SMILES,z-score
1,Cc1ccc(/C=C2\SC(=S)N(CCCC(=O)Nc3ccccn3)C2=O)cc1,-0.137
2,CC(C)(C)NC(=O)C(=O)NNC(=O)COc1ccccc1,0.182
3,NC(=O)c1ccc(NCc2ccco2)c([N+](=O)[O-])c1,-0.199
4,Cc1cc(/C=N/NC(=O)C(=O)NCc2ccccn2)c(C)n1-c1ccccc1,-0.0831
5,CC1(C)CC(=O)c2cc3c(N)c(C(=O)NCc4ccccc4)sc3nc2C1,0.13
6,CC(C)(C)c1cc(=O)n2c(C#N)c(C#N)nc2[nH]1,-0.141
7,Cc1cc(-c2sccc2C)nc(-n2cccc2)n1,0.114
8,Cn1c(=O)c(C(=O)CN2CCN(S(=O)(=O)c3ccccc3)CC2)c(N)n(Cc2ccccc2)c1=O,-0.413
9,Cc1nnc(SCCn2c(N3CCN(C)CC3)nc3c2c(=O)[nH]c(=O)n3C)s1,0.434
10,O=C(C1CCCCC1)N1CCC(c2nc3c(nnn3Cc3c(F)cccc3Cl)c(=O)[nH]2)CC1,-2.13
11,Cc1c(C(=O)N/N=C/c2ccc(-c3ccccc3[N+](=O)[O-])o2)sc(N)c1C#N,0.00447
12,COc1cccc2cc3c(=O)oc4ccccc4c3nc12,0.283
13,CCCCOC(=O)CSc1nc(N)c(C#N)c(-c2ccc(OC)cc2)c1C#N,-0.1
14,COc1ccccc1Nc1ccc(C(=O)NC2CCCCC2)cn1,0.419
15,CCOC(=O)N1CCN(C(=O)CCCn2c(=S)[nH]c3ccccc3c2=O)CC1,-0.357
16,CCOC(=O)C(C(=O)Nc1ccccn1)C1CCCCC1 (stereo unspecified),-0.232
17,CCCCc1nc(SCC(=O)Nc2ncccn2)n[nH]1,-0.193
18,Cc1cc(C)cc(NC(=S)N2CCN(CCO)CC2)c1,-0.119
19,COCCNC(=O)C1CC(c2ccc([N+](=O)[O-])cc2)=NO1 (stereo unspecified),0.0618

row,SMILES,z-score
1,O=C(NCc1ccccc1)c1ccc(S(=O)(=O)N2CCCC2)cc1,0.198
2,Cc1ccc(S(=O)(=O)NCCC(=O)Nc2cccc(Cl)c2)cc1,-0.046
3,COc1ccc(C(=O)OCC(=O)NCC2CCCCC2)cc1S(=O)(=O)N1CCCc2ccccc21,-0.107
4,COc1ccc(-c2cn3ccccc3n2)cc1OC,1.17
5,CCc1cc(C(=O)c2ccccc2OC)c(N)s1,-0.315
6,Cc1c2ccccc2nc2c(F)c(NC(C)C)c(F)c(F)c12,-0.131
7,Cc1nc(C)c(-c2csc(NCc3ccco3)n2)s1,-0.0974
8,COc1cccc(N=C2SC(C(=O)Nc3ccc(F)cc3)CC(=O)N2C)c1 (stereo unspecified),-0.106
9,COc1ccc(C(CC(=O)c2ccc(C)cc2)Nc2ccc([N+](=O)[O-])cc2)cc1 (stereo unspecified),0.176
10,Cc1c(NC(=O)OCc2ccccc2)c(=O)n(-c2ccccc2)n1C,0.151
11,CCC(C)(NC(=O)c1cccc(N2C(=O)CSC2c2ccccc2)c1)C(=O)Nc1ccccc1C (stereo unspecified),-0.133
12,CCn1c(CC(=O)Nc2ccc(Cl)c(Cl)c2)nnc1SCc1ccc(C)cc1,-0.174
13,COCCCNCCCCSc1ccc(Cl)cc1,0.818
14,O=C(Cn1cc(Cl)ccc1=O)c1ccc(Cl)cc1,0.233
15,O=C(N/C(=C/c1cccs1)C(=O)N1CCOCC1)c1ccco1,-0.0656
16,COc1ccc(CC(=O)Nc2c3c(nn2-c2ccccc2C)CS(=O)C3)cc1 (stereo unspecified),-0.0338
17,CCOC(=O)COc1cc(N2C(=O)CSCC2=O)c(Cl)cc1Cl,-0.277
18,CN(C(=O)COC(=O)c1ccccc1SCC(=O)NC1CCCCCCC1)C1CCS(=O)(=O)C1 (stereo unspecified),-0.32
19,CN(C)CCOC(C1CCCCC1)C1CCCCC1,0.453

row,SMILES,z-score
1,CN1CCN(C(=O)CCc2nc3ccccc3c(=O)[nH]2)CC1,-0.0692
2,CCCCc1nnc(NC(=O)C(C)Sc2nc(N)cc(=O)[nH]2)s1 (stereo unspecified),-0.615
3,O=C1CC(=O)N(c2ccccc2)c2ccccc21,-1.05
4,Cc1nc(SCC#N)c2c3c(sc2n1)CCC3,-0.0564
5,O=C(O)c1ccc(-n2nnnc2SCc2ccccc2F)cc1,-0.0238
6,CCOC(=O)/C(=N/Nc1ccc(Cl)cc1)S(=O)(=O)c1ccc(Cl)cc1,-0.206
7,O=C(O)CCc1nc2cccnc2n1Cc1ccccc1,-0.427
8,Cc1cc(Cl)ccc1OCC(=O)NCCOc1nc(N2CCOCC2)nc(N2CCOCC2)n1,0.0773
9,O=C(N/C(=C/c1cccnc1)C(=O)N1CCOCC1)c1ccccc1,0.00742
10,CCOC(=O)C(C)Oc1cccc2c(=O)n(CC(=O)Nc3ccc4c(c3)OCCO4)ccc12 (stereo unspecified),-0.343
11,Cc1cc(N2CCC(C)CC2)n2ncc(-c3ccccc3)c2n1,active: 3.32
12,CC(CNc1ccc([N+](=O)[O-])cc1)NC(=O)c1ccccc1Br (stereo unspecified),-0.0142
13,CN1OC(COC(=O)c2ccccc2)CC1c1ccccc1 (stereo unspecified),-0.212
14,COc1ccc(NC(=O)c2oc3ccccc3c2NC(=O)COc2ccccc2OC)c(OC)c1,0.0251
15,CCn1nc(C)c(/C=N/NC(=O)Cc2ccc(Cl)cc2)c1C,0.274
16,CCOC(=O)C(C(=O)OCC)C(C(=O)OCC)N1CCOCC1 (stereo unspecified),0.163
17,CC(C)(C)c1cc(-n2ccnc2)n2ncc(-c3ccc(Cl)cc3)c2n1,0.402
18,Cn1c(SCC(=O)NCc2cccs2)nnc1-c1ccco1,-0.0179
